The structures appear in SMILES notation. The whole screen tested about 48,000 compounds, of which about 1,200 (2.5%) were called active. Roughly 2% stayed inconclusive and do not appear here.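 Rule for the calls: active = activation of at least 60% and not above a set upper limit (about 1 call in 100 departs from these limits); inconclusive = activation of 40% to 60%, or above that upper limit; inactive = activation under 40%.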 The list shows a part of the results.

UniProt O75388, sequence (O75388 whole entry, looked up): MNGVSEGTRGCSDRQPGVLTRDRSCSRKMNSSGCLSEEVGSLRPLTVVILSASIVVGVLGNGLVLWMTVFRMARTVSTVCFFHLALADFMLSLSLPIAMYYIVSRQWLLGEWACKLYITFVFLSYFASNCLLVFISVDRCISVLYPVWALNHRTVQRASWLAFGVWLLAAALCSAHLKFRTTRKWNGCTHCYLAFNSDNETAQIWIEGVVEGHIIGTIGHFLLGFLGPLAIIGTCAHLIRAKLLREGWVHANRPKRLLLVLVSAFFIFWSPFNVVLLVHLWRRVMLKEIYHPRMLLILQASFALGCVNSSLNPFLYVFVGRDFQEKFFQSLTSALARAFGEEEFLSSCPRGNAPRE

The target in the assay is Probable G-protein coupled receptor 32 (Homo sapiens) (UniProt O75388). Nature of the assay: qHTS for Agonists of Human Resolvin D1 Receptor DRV1. Note: 0% is about no effect. The note with it: CHO-K1 GPR32 beta-arrestin PathHunter luminescence, 90 min; at 76.9 µM; stronger effect = higher value; zero percent set by DMSO-only wells. Summed up:
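Engineered CHO-K1 line co-expressing GPR32-ProLink and EA-beta-arrestin. Compound treatment lasted 90 min at 37 °C. Luminescence was recorded after 1 h with substrate at ambient temperature, relative to DMSO basal wells.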
On the technique in general: Quantitative high-throughput screening tests each substance at several concentrations.
On to `CC1CCN(CC[C@H]2CCCN2S(=O)(=O)c2cccc(O)c2)CC1`, for which the activation is inactive: 1.4%.
Consider `Cn1nccc1C(=O)NCc1ccc2c(c1)CCN2C(=O)c1ccc(F)cc1`, for which the activation is inactive: -47.5%.
For `Cc1ccc(C(=O)N2CCC(c3c[nH]c4ccccc34)(c3c[nH]c4ccccc34)CC2)cc1` the value was inactive: -20.2%; for `COc1ccccc1Nc1cc(C(=O)NCCCN(C)c2ccccc2)c2ccccc2n1`, inactive: -14.1%.
Then `COc1cc(Cl)ccc1Nc1ncc(C(=O)N2CCN(c3ccccc3OC)CC2)c2ccccc12`, with inactive: -6.83%; and `COc1ccc(OC)c(-c2cc(C(=O)Nc3cccc(Cl)c3C)no2)c1`, with inactive: -3.37%; and `COc1cccc(CNC(=O)c2ccc(Cn3c(SCc4ccccc4)nc4cccnc43)cc2)c1`, with inactive: -17.7%.
Then `CCC(=O)N1c2ccc(S(=O)(=O)NCc3cccc(OC)c3)cc2CC1C` (centres undefined), with inactive: 45.4%; and `Cc1ccc(S(=O)(=O)c2nc(-c3ccco3)oc2SC(C)c2ccccc2)cc1` (centres undefined), with inactive: -31.6%; and `O=C(CSc1nc(-c2ccccc2)nc2c1CCCC2)c1ccc(F)cc1`, with inactive: 18.8%.
As for `Cc1nc2ccccc2n1CC(O)COc1ccc(C(=O)O)cc1` (centres undefined), the activation is inactive: 30.5%.
Turning to `COc1cc(NC(=O)CCc2c(C)nc3nc(-c4cc(OC)cc(OC)c4)nn3c2C)cc(OC)c1`, the activation was inactive: 0.906%.
For `CCCCN(CC)CCNC(=O)c1cc2c(-c3ccc(Cl)cc3)nn(C)c2s1` the value was inactive: 26.3%; for `CC1CCCN(S(=O)(=O)c2ccc(NC(=O)c3nc(SC(C)C)ncc3Cl)cc2)C1` (centres undefined), inactive: -11.6%; for `Cc1ccc(NS(=O)(=O)c2ccc(NC(=O)N3CCCC3)cc2)cc1C`, inactive: -1.04%.
Take `Cc1ccc(-n2c3nc(=O)n(C)c(=O)c-3cc3c(Cl)cccc32)c(C)c1`: the activation is inactive: -17.2%.
For `CCn1c(C(=O)N2CCC(C(=O)NCCc3ccccc3)CC2)cc2sccc21` the value was inactive: -6.53%; for `CCC(Sc1nnc(-c2ccc(OC)cc2)c(-c2ccc(OC)cc2)n1)C(=O)NC1CCCCC1` (centres undefined), inactive: -11.5%.
Turning to `COc1ccccc1/C=C/c1nc(C#N)c(N2CCCCCC2)o1`, the activation was inactive: -13.2%.
With `CCCCN(Cc1ccccc1)C(=O)c1oc(=O)c2ccccc2c1-c1ccc(C)cc1`, the activation was inactive: -2.7%.
For `COc1ccc(-n2nc(C(=O)N3CCN(c4ccccc4OC)CC3)c3c4ccccc4n(C)c3c2=O)cc1`, the activation was inactive: -0.651%.
On to `CCOC(=O)c1ccc(NC(=O)C(CC)Sc2nc3ncccc3[nH]2)cc1` (centres undefined), for which the activation is inactive: -7.76%.
Then `COc1ccc(N2CC(NC(=O)c3ccc(S(=O)(=O)N4CCCC4)cc3)CC2=O)cc1` (centres undefined), with inactive: -11%; and `COc1cccc(N2CC(NC(=O)/C=C\c3ccc4c(c3)OCO4)CC2=O)c1` (centres undefined), with inactive: -1.14%.
Then `COc1ccccc1CNC(=O)CCn1c(=O)c2ccccc2n(CC(=O)Nc2ccc(C)cc2C)c1=O`, with inactive: -11.1%; and `Cc1cc(OC(=O)c2cc(-c3ccc4c(c3)OCCO4)on2)ccc1Cl`, with inactive: -34.1%; and `COc1ccc2c(c1)-c1nc(NC(=O)c3cc(Cl)ccc3OC)sc1CC2`, with inactive: -13.6%.
In the case of `Cc1ccc(CN2CCCn3nc(C(=O)NCCc4ccc(Cl)cc4)cc3C2=O)cc1`, the activation is active: 115%.
For `CN1c2ccccc2-c2nc(SCC(=O)Nc3ccccc3C(F)(F)F)ncc2S1(=O)=O` the value was inactive: -12.6%; for `CCc1nn2c(=O)c(S(=O)(=O)Nc3ccc(OC)c(Cl)c3)c(C)nc2s1`, inactive: -8.57%.
Then `O=C(NCC(c1cccnc1)N1CCN(Cc2ccccc2)CC1)C(=O)Nc1ccc(Cl)cc1` (centres undefined), with inactive: 20.4%; and `CCN(Cc1ccccc1)C(=O)Cn1c(=O)n(Cc2ccccc2)c(=O)c2c1c1cc(OC)ccc1n2C`, with inactive: -8.25%; and `Cc1ccc2c(=O)cc(CSc3ccccc3)[nH]c2c1C`, with inactive: -6.79%.
`Cc1ccc(CSCC(=O)N2CCN(c3ccc(F)cc3)CC2)cc1`: the activation was inactive: -22.1%.
For `CC(C)c1ccc(S(=O)(=O)c2nnn3c2nc(NC2CCCC2)c2sccc23)cc1` the value was inactive: -11.3%; for `Cc1nc(CC(=O)Nc2cccc(C)c2C)cs1`, inactive: -10.5%.
For `CC(=O)c1cccc(S(=O)(=O)NCCc2csc3nc(-c4ccc(F)cc4)nn23)c1`, the activation was inactive: -6.74%.
`Cc1cccc(N(CC(=O)Nc2ccc(Br)cc2)S(C)(=O)=O)c1C`: the activation is inactive: 23.8%.
In the case of `COc1ccc(OC)c(NC(=O)c2c(NCc3ccc(C)o3)sc3c2CCC(C)C3)c1` (centres undefined), the activation is inactive: -8.94%.
Turning to `COc1ccc(C(=O)NCc2ccc3c(c2)CCN3C(=O)c2ccncc2)cc1`, the activation was inactive: -14.1%.
Then `Cc1cccc(C(=O)NCCc2sc(-c3ccccc3)nc2C)c1`, with active: 77.7%; and `CCOC(=O)c1sc2ccccc2c1S(=O)(=O)Nc1cccc(C(F)(F)F)c1`, with inactive: -10.1%; and `C=CCc1cccc2cc(C(=O)Nc3cccc(Cl)c3)c(=O)oc12`, with inactive: -2.93%.
With `Cc1coc2c1c(C)cc1oc(=O)cc(C)c12`, the activation was inactive: 7.41%.
Turning to `CC(C)OCCCNC(=O)c1ccc2c(=O)n(CCc3ccccc3)c(=O)[nH]c2c1`, the activation was inactive: 12.1%.
For `COc1ccc(-c2nnc(SCC(=O)Oc3c(C)cccc3C)o2)cc1OC` the value was inactive: -15.6%; for `CCCCN(C)C(=O)C(Cc1ccccc1)NS(=O)(=O)c1ccc2c(c1)c(=O)n(C)c(=O)n2C` (centres undefined), inactive: -11%; for `Cc1ccc(-c2c(C(=O)NCc3ccccc3)oc(=O)c3ccccc23)cc1`, inactive: -8.36%.
For `CCC(C)NC(=O)c1ccc(-n2c(-c3ccccc3)cc3c2CCCC3)cc1` (centres undefined) the value was inactive: -23.6%; for `Cc1ccccc1CNC(=O)c1ccc(-c2nc(CS(=O)(=O)c3ccccc3)c(C)o2)cc1`, inactive: -2.05%.
For `COc1ccc(C)cc1NC(=O)CN(c1cc(C(F)(F)F)ccc1Cl)S(C)(=O)=O` the value was inactive: -10.5%; for `CCc1cccc(C)c1NC(=O)c1cc(C)nc2c1c(C)nn2-c1cccc(Cl)c1C`, inactive: -4.49%.
For the compound `CC(=O)c1c(C)oc2ccc(N(C(=O)Oc3ccccc3)S(=O)(=O)c3ccc(C(C)(C)C)cc3)cc12`, the activation was inactive: 5.72%.
`COc1cc(NC(=O)c2cc(Cl)c(OC)c(Cl)c2)ccc1NC(=O)c1cc2ccccc2o1`: the activation is inactive: 2.21%.

For the origin of these results see PubChem BioAssay AID1346428 (National Center for Advancing Translational Sciences (NCATS), 2018).
